The other results are listed elsewhere or left out.

The experiment concerns the target T1, OsWOX13 (Oryza sativa, UniProt Q5QMM3 1-267).
T1 sequence: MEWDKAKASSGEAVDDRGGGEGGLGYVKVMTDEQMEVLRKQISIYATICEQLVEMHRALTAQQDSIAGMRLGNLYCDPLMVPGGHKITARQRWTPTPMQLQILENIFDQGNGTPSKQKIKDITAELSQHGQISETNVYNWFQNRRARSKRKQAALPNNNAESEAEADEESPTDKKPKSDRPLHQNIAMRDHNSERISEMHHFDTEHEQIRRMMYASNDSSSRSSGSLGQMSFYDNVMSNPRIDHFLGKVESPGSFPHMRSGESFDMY
In words: protein-binding microarray (RPBM); PBS, 2% BSA, 51.3 ng/ul salmon testes DNA, 50 uM zinc acetate, 200 nM TF, 25 C, 1 h; high values mean tight binding. As to conditions: protein: recombinant; tags: N-terminal polyhistidine and DsRed monomer fusion (pET32a); label: CyDye5-dUTP incorporated in the synthesized complementary strand; 3' TTTTT single-stranded linker to array surface; dsDNA, one strand shown. Summed up: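 Ni–NTA purification followed expression in E. coli BL21-CodonPlus of transcription factors fused N-terminally to a polyhistidine tag and DsRed. At 200 nM in PBS with 2% BSA, salmon testes DNA and 50 µM zinc acetate, the protein was incubated for 1 h at 25 °C with a custom Agilent array that had been primer-extended with Cy5-dUTP and blocked with 2% BSA. After washing, the array was read on an Axon 4000B scanner. The binding signal is per-feature fluorescence intensity in arbitrary units.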
With “CGATAATTTCATACATACAATTTTATGGTATGAAGACTGACGGAGTCACCTAGTGCAG”, the binding signal was 8690 fluorescence intensity (a.u.). In the case of “GCTGGCTATATATGATTGGGGCACCTATAGTCTTATTATGCGGAGTCACCTAGTGCAG”, the binding signal was 3330 fluorescence intensity (a.u.). Then “TACTAGATTGCTATATTATGGGACGGAGGGAGTAGAGGTTCGGAGTCACCTAGTGCAG”, with 19300 fluorescence intensity (a.u.); and “CTGATGGATTAACATATGGAGTACTTGGTCACTAACCTTACGGAGTCACCTAGTGCAG”, with 3500 fluorescence intensity (a.u.). In the case of “CTGATGATGATGGCAGTGACGATTGCTAACACCCTGGTGCCGGAGTCACCTAGTGCAG” it was 17800 fluorescence intensity (a.u.).

Take “AAGATCGATCAGGAAAATAATTGGAAAGTTCATTGCCACGCGGAGTCACCTAGTGCAG”: the binding signal is 3550 fluorescence intensity (a.u.).

Turning to “AAGAAGAATCTATCTATCTATCTATCTATCAATCTCTATACGGAGTCACCTAGTGCAG”, the binding signal was 3320 fluorescence intensity (a.u.). For the sequence “TTTCTCTTGATTGCACCTGCATTTTCTTGGGGTCGTTTATCGGAGTCACCTAGTGCAG”, the binding signal was 23000 fluorescence intensity (a.u.). Then “GGAATGTAATTACACTACAACTTACATATAACTACAATATCGGAGTCACCTAGTGCAG”, with 4800 fluorescence intensity (a.u.); and “CGATCAATTTCCCATTTCAATCTCTCTCAAATTCCCATGTCGGAGTCACCTAGTGCAG”, with 6020 fluorescence intensity (a.u.). In the case of “AAATTACATTTAGGTAATTGATGCACAACACTTAATTTTCCGGAGTCACCTAGTGCAG” it was 6600 fluorescence intensity (a.u.); in that of “TAACCAATCAGATTCAGCGGCGGCTTACTGTGTGTCCGTGCGGAGTCACCTAGTGCAG”, 3800 fluorescence intensity (a.u.). Then “TCAAAACAAACTGAAATTTGACCCGAAAATGTATGCGCGGCGGAGTCACCTAGTGCAG”, with 4320 fluorescence intensity (a.u.); and “TCTGACAGAGTTTTGATATGGATGATTTCTGTTAGTGGTTCGGAGTCACCTAGTGCAG”, with 30600 fluorescence intensity (a.u.); and “GGCAAAATAGACGTTTTCTTCTTTCTTTTCTTAACGGCCCCGGAGTCACCTAGTGCAG”, with 3200 fluorescence intensity (a.u.). In the case of “CTAATAATAAAATAAATTGCAGATTCTGCCTGCAAACTATCGGAGTCACCTAGTGCAG”, the binding signal is 6570 fluorescence intensity (a.u.). Then “GACAAGTAATTCGATTTTGATAGCTTTCAGTTTACGTTCCCGGAGTCACCTAGTGCAG”, with 4910 fluorescence intensity (a.u.); and “AAGACATTAGACAACTTGACAAATTTTCTTCTCCATTTCGCGGAGTCACCTAGTGCAG”, with 5770 fluorescence intensity (a.u.); and “TCTCTTAATTAATATAGTGCCACATAAGATAAAAGTTCTACGGAGTCACCTAGTGCAG”, with 10400 fluorescence intensity (a.u.).

For “AATTCAAGCTCATCACTGATTTGATAAGACATTAAGATAGCGGAGTCACCTAGTGCAG”, the binding signal is 4050 fluorescence intensity (a.u.).

Regarding “AGAAGCAGGCAAACAATCAATCATCAGCAATTAACAGGTACGGAGTCACCTAGTGCAG”, the binding signal was 10600 fluorescence intensity (a.u.). Consider “TGCAAATTTACCACTACTTTGAATCGTTATTGCAAAACTGCGGAGTCACCTAGTGCAG”, for which the binding signal is 3870 fluorescence intensity (a.u.).

Regarding “TTCACGTCAAAATTAGAAATTTGGTTGAAATTGGAACGATCGGAGTCACCTAGTGCAG”, the binding signal is 4920 fluorescence intensity (a.u.). In the case of “ACTTGATAATACATTTACATGCAGCGTAATGATGCCAGTCCGGAGTCACCTAGTGCAG” it was 5520 fluorescence intensity (a.u.). Take “GATGGACCAATTTGATTGTTGTTGGATTCTACGATGCATGCGGAGTCACCTAGTGCAG”: the binding signal was 9950 fluorescence intensity (a.u.).

“AACTAGATTACATCACTTGTCGGGTGATACTTTACATGTTCGGAGTCACCTAGTGCAG”: the binding signal is 5770 fluorescence intensity (a.u.). Consider “TTGTGATTGTCTATGTTGTAATGTGTAATTCTCAAAATAACGGAGTCACCTAGTGCAG”, for which the binding signal is 13800 fluorescence intensity (a.u.). Then “GATGTGACGTGATGTGATGGAAAGTTGGGAGTTGGGGAAACGGAGTCACCTAGTGCAG”, with 5400 fluorescence intensity (a.u.); and “TTTGATTGTTTCCATTTGCAATTTCTAAATACGAACCTGCCGGAGTCACCTAGTGCAG”, with 57500 fluorescence intensity (a.u.); and “TTAAACTTTAGATTGCATGTTGAACTTTAGAATTTAGTGGCGGAGTCACCTAGTGCAG”, with 13100 fluorescence intensity (a.u.). Turning to “CATGAAATCATGGCCAATGATTTGATCTGCACGAACTGCCCGGAGTCACCTAGTGCAG”, the binding signal is 18700 fluorescence intensity (a.u.).

Regarding “ATTCCTAAAATTATATGAATTTATGAGAAATTACGTAATGCGGAGTCACCTAGTGCAG”, the binding signal was 4300 fluorescence intensity (a.u.). Consider “TAAATAATTGCCATTGCCATGCTGCCACGTGTCATGGGACCGGAGTCACCTAGTGCAG”, for which the binding signal is 25600 fluorescence intensity (a.u.). Then “GTGTTTGAAACTGACAAATTAAGTTGACGCACATAAAAGACGGAGTCACCTAGTGCAG”, with 3300 fluorescence intensity (a.u.); and “CCTCAATTAATTTTAGGAGATAGAGAAGATTTGACCAGATCGGAGTCACCTAGTGCAG”, with 38200 fluorescence intensity (a.u.).

With “CTTGTAACAATTATGGTCACCTGAATAGAATTATGCAGTTCGGAGTCACCTAGTGCAG”, the binding signal is 3550 fluorescence intensity (a.u.). For “GTGCTATCTGTGTGGGTGATTGATTCATTGGTCAACTCAACGGAGTCACCTAGTGCAG”, the binding signal is 27600 fluorescence intensity (a.u.). Then “TAATTAAACATGAATTTATATCAGTCAAAGTTTACACTAACGGAGTCACCTAGTGCAG”, with 3510 fluorescence intensity (a.u.); and “GCGTGACTGCGTGGAGCATCCAACGGTCCAAGATGGTTTGCGGAGTCACCTAGTGCAG”, with 4250 fluorescence intensity (a.u.). Turning to “TTCAATCAAACTTCCAATTTTAGCTTGAACTACACACACCCGGAGTCACCTAGTGCAG”, the binding signal is 7520 fluorescence intensity (a.u.). In the case of “TGCTGAATTAATTGATCAGGTCAAGTCGTTAAAGCAGACACGGAGTCACCTAGTGCAG” it was 31700 fluorescence intensity (a.u.); in that of “AATACTCACTGGCTGATTATCACCCATCTTCTTCTGTAATCGGAGTCACCTAGTGCAG”, 3880 fluorescence intensity (a.u.).
